Reference: PubChem BioAssay AID1508624 (National Center for Advancing Translational Sciences (NCATS), 2021)
Where “and” joins values, the source holds several entries; their conditions need not be identical. Identical values can stand only once. Out of some 48,000 compounds screened, about 120 (0.25%) were called active. About 4% were inconclusive and are not listed. Calls come from the whole dose curve; as a rule, active = well fitted activation curve with a large enough effect; inconclusive = small, poorly fitted or top-dose-only effect, or another doubt; inactive = no such curve, though single readings can be large or run the other way. The list shows a part of the results.

Assay: Primary qHTS for Identification of Small Molecule Activators of Huntingtin-Antisense Promoter Activity; note: nearly all actives have a fitted effect of over 55% in size
Details: HEK293 HTT-AS promoter firefly luciferase reporter, 24 h; at 57.5 µM (top of the series) unless noted
Procedure, shortened: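 Firefly luciferase signal from promoter-reporter HEK293 cells was scaled between vehicle (0%) and zero RLU (-100%). Compounds were tested at final concentrations of up to 57.5 uM over 24 h at 37 degrees C. PTC124 at 50 uM final served as control inhibitor.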

Row | SMILES | activity change, positive = activation
1 | COc1ccc(OC)c(C(c2c(O)c3ccccc3oc2=O)c2c(C)n(C)n(-c3ccccc3)c2=O)c1 (centres undefined) | inactive: -7.9% [at 57.5 µM, percent change from vehicle, -100% = no light]
2 | CCc1cccc(NC(=O)CN2C(=O)CN=C(c3ccccc3F)c3cc(Cl)ccc32)c1 | inactive: -27.6%
3 | CC(C)(O)C(=O)Nc1ccc([N+](=O)[O-])c(C(F)(F)F)c1 | inactive: -29.4%
4 | Cc1ccc2c(c1)C1CN(C)CCC1N2 (centres undefined) | inactive: -13.6% [at 25.1 µM]
5 | N#Cc1cc2c(nc1SCC(=O)Nc1ccc(Cl)c(C(F)(F)F)c1)C1CCN2CC1 | inactive: -62.8%
6 | CCOC(=O)c1cncn1C(C)c1ccccc1 (centres undefined) | inactive: -4.93%
7 | CCOC(=O)c1cncn1[C@H](C)c1ccccc1 | inactive: -11.3%
8 | CNC(=O)Oc1cccc2ccccc12 | inactive: -3.77%
9 | COc1ccc(NC(=O)c2cccn(Cc3ccc(Cl)cc3)c2=O)c(OC)c1 | inactive: -49.7%
10 | C[C@]12Cc3cn[nH]c3C[C@@H]1CC[C@@H]1[C@@H]2CC[C@@]2(C)[C@H]1CC[C@]2(C)O | inactive: -5.86%
11 | CC1=C(C(=O)O)N2C(=O)[C@@H](N)[C@H]2SC1 | inactive: -4.31% [at 25.1 µM]
12 | CC(O)(CS(=O)(=O)c1ccc(F)cc1)C(=O)Nc1ccc(C#N)c(C(F)(F)F)c1 (centres undefined) | inactive: -31.5%
13 | CCN1CCN(C(=O)Cc2ccc(Nc3ncc(F)c(Nc4ccc(C(=O)Nc5ccccc5Cl)cc4)n3)cc2)CC1 | inactive: -12.4%
14 | COC1(CS(=O)c2ccccc2)CCN(CCc2c[nH]c3ccc(F)cc23)CC1 (centres undefined) | inactive: -14%
15 | O=C(COc1ccccc1[N+](=O)[O-])N1CCN(CCc2ccccn2)CC1 | inactive: -14.7% [at 57.5 µM, percent change from vehicle, -100% = no light]
16 | Cc1ccccc1-n1c(/C=C/c2ccccc2F)nc2ccccc2c1=O | inactive: -37.6%
17 | O=C(Nc1ccccc1C(F)(F)F)c1cccn(Cc2ccccc2)c1=O | inactive: -42.8% [at 57.5 µM, percent change from vehicle, -100% = no light]
18 | Cc1ncsc1CCCl | inactive: -0.211%
19 | O=[N+]([O-])O[C@H]1CO[C@H]2[C@@H]1OC[C@H]2O[N+](=O)[O-] | inactive: -0.17%
20 | Cc1ccc(-n2c(/C=C/c3cccc4ccccc34)nc3ccccc3c2=O)cc1 | inactive: -7.71% [at 57.5 µM, percent change from vehicle, -100% = no light]
21 | C=C1CC[C@@]2(O)[C@H]3Cc4ccc(O)c5c4[C@@]2(CCN3CC2CC2)[C@H]1O5 | inactive: -6.12%
22 | C[C@]12Cc3nonc3C[C@@H]1CC[C@@H]1[C@@H]2CC[C@@]2(C)[C@H]1CC[C@]2(C)O | inactive: -32.4%
23 | COC[C@H]1OC(=O)c2coc3c2[C@@]1(C)C1=C(C3=O)C2CCC(=O)[C@@]2(C)C[C@H]1OC(C)=O (some centres undefined) | inactive: -18.3%
24 | O=C(CCCN1CCC2(CC1)C(=O)NCN2c1ccccc1)c1ccc(F)cc1 | inactive: -15.1%
25 | Cc1cccc(Cn2cccc(C(=O)Nc3nc4ccccc4s3)c2=O)c1 | inactive: -11.4% [at 57.5 µM, percent change from vehicle, -100% = no light]

Row | SMILES | activity change, positive = activation
26 | CCOC(=O)c1ccc(NC(=O)CSc2nc3c(cc2C#N)N2CCC3CC2)cc1 | inactive: -19.7%
27 | Cc1cccc(-n2c(CC3C(=O)Nc4ccc(C)cc43)nc3ccccc3c2=O)c1 (centres undefined) | inactive: -5.84%
28 | NCC1(CC(=O)O)CCCCC1 | inactive: -6.59% and inactive: 1.76%
29 | COc1cccc(-n2c(/C=C/c3cccc(C)c3)nc3ccccc3c2=O)c1 | inactive: -11% [at 57.5 µM, percent change from vehicle, -100% = no light]
30 | CCC(=O)C(CC(C)N(C)C)(c1ccccc1)c1ccccc1 (centres undefined) | inactive: -12.6% [at 116 µM]
31 | CC(=O)C1CCOC1=O (centres undefined) | inactive: 2.19%
32 | CCn1c(CN2CCN(C)CC2)nc2ccccc21 | inactive: 0%
33 | C=C[C@@H]1CN2CCC1C[C@@H]2[C@@H](O)c1ccnc2ccccc12 (some centres undefined) | inactive: -63.3%
34 | Cc1ccc(C)c(CN2C(=O)c3ccccc3Sc3ccc(C(=O)N4CCC5(CC4)OCCO5)cc32)c1 | inactive: -47%
35 | O=C(c1ccc2c(c1)N(Cc1c(F)cccc1Cl)C(=O)c1ccccc1S2)N1CCC2(CC1)OCCO2 | inactive: -25.7%
36 | O=C(Nc1ccc(OC(F)(F)F)cc1)c1cccn(Cc2ccccc2Cl)c1=O | inactive: -27.3%
37 | O=c1[nH]oc2c1CCNC2 | inactive: 0.631%
38 | Cc1cccc(CN2C(=O)CN=C(c3ccccc3Cl)c3cc(Cl)ccc32)c1 | inactive: -35.1%
39 | CCOC(C(=O)OCCN(C)C)(c1ccccc1)c1ccccc1 | inactive: -12.1%
40 | CN1[C@@H]2CC[C@H]1CC(OC(=O)c1cc(Cl)cc(Cl)c1)C2 (some centres undefined) | inactive: -16%
41 | Cc1ccc(-n2c(/C=C/c3ccccc3)nc3ccccc3c2=O)cc1C | inactive: 8.78%
42 | CCOC(=O)Nc1ccc(NCc2ccc(F)cc2)cc1N | inactive: -28.6%
43 | C[C@@H]1C[C@@H]([C@H](O)CC2CC(=O)NC(=O)C2)C(=O)[C@@H](C)C1 | inactive: -31.9% and inactive: -35.3%
44 | C[C@H](N)C(=O)c1ccccc1 | inactive: -5.08% [at 116 µM]
45 | O=C(O)c1nn(Cc2ccc(Cl)cc2Cl)c2ccccc12 | inactive: -22.2% and inactive: -7.1%
46 | Nc1ccccc1C(=O)OCC(O)CO (centres undefined) | inactive: 1.99%
47 | COc1cc2cc(c1Cl)N(C)C(=O)C[C@H](OC(=O)C(C)C)[C@]1(C)O[C@H]1[C@H](C)[C@@H]1C[C@@](O)(NC(=O)O1)[C@H](OC)C=CC=C(C)C2 | inactive: -34.6%
48 | O=C(O)C(Cl)Cl | inactive: 1.15%
49 | CCOc1ccc(CN2C(=O)c3ccccc3Sc3ccc(C(=O)N4CCC5(CC4)OCCO5)cc32)cc1 | inactive: -17%
